# Assay results as given in PubChem BioAssay AID686971 (National Center for Advancing Translational Sciences (NCATS), 2013).
# Hit rate of the full screen: of about 360,000 compounds, about 7,500 (2.1%) were called active. The shares of active, inactive and inconclusive entries below differ from those in the screen. Calls come from the whole dose curve; as a rule, active = well fitted cell-killing curve with a large enough effect; inconclusive = small, poorly fitted or top-dose-only effect, or effect the other way, or another doubt; inactive = no such curve, though single readings can be large or run the other way. No potency is given beside an inconclusive call; the fits are too rough.
# Assay: qHTS for induction of synthetic lethality in tumor cells producing 2HG: qHTS for the HT-1080-IDH1KD cell line;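 for activity, negative = toxicity: 0% = DMSO wells and -100% = cell-free medium wells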
# Conditions: HT-1080 IDH1 knockdown viability, ATP luminescence, 48 h; activity, negative = toxicity: at 46.1 µM (top of the series) unless noted
# Outline: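 Using the IDH1-knockdown HT-1080 line run in the same batch and compound series as the NT line, viability after 48 h at 37 °C was determined by CellTiter-Glo luminescence and expressed as % activity.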
# Potency is the fitted concentration of half-maximal effect; tags give direction and shape of the fitted curve.
SMILES,Potency,"activity, negative = toxicity"
CC(=O)c1c(C)[nH]c(C(=O)Nc2ccc(C)c(S(=O)(=O)Nc3ccc(C)cc3C)c2)c1C,"inconclusive [cytotoxic, single point]",
Cc1cccc(C)c1NC(=O)c1cccc2c1C(=O)N(C1CCCCC1)C2,"inconclusive [cytotoxic, single point]",
CCCCn1c(=N)n(CC(O)COc2cccc(C)c2)c2ccccc21 (configuration not stated),"inconclusive [cytotoxic, partial curve]",
N#Cc1cnc(Nc2nc3ccccc3o2)nc1-c1ccccc1,"inconclusive [cytotoxic, single point]",
C/C(=N\NC(=O)c1nnn(-c2nonc2N)c1CN1CCc2ccccc21)c1ccccc1O,,inactive: 0%
CC1(C)Cc2c(sc3c2c(=N)n(Cc2ccco2)c(=O)n3CC(=O)Nc2ccccc2)CO1,,inactive: -2.79%
COc1cc(/C=N/Nc2ccc(C(F)(F)F)cn2)cc(OC)c1O,"inconclusive [cytotoxic, single point]",
CCN(CCCNC(=O)C1CCC(=O)N1Cc1ccc(C)cc1)c1cccc(C)c1 (configuration not stated),,inactive: -1.84%
COCc1cc(C)nc(SCc2ccc(Br)cc2)c1C#N,,inactive: -1.21%
Cc1ccc(C)c(NC(=O)CN(C)C(=O)c2cccc(S(=O)(=O)N3CCN(Cc4ccccc4)CC3)c2)c1,"inconclusive [cytotoxic, single point]",
COc1ccc(-c2n[nH]c3c2C(c2ccc(OC)c(OC)c2)N(c2ccccc2)C3=O)cc1 (configuration not stated),"inconclusive [cytotoxic, single point]",
CCc1cc(OCCCSc2nc(C)cc(=O)[nH]2)ccc1Cl,"inconclusive [cytotoxic, partial curve]",
CCCc1cc(-c2[nH]ncc2-c2ccc(C(=O)OCC)o2)c(O)cc1O,"inconclusive [cytotoxic, single point]",
CCc1nnc(NC(=O)c2cc(S(=O)(=O)N(CC)CC)ccc2Cl)s1,"inconclusive [cytotoxic, single point]",
COc1ccc(-c2csc(Cc3nnc(N4CCOCC4)n3-c3ccccc3)n2)cc1,,inactive: 0.761%
CCOc1ccccc1-c1cc(C(=O)N/N=C/c2ccc(O)c(OC)c2)c2ccccc2n1,"inconclusive [cytotoxic, partial curve, poor fit]",
CCCCCC(=O)Nc1cccc(C2=NOC3(C2)C[C@@H](C(N)=O)N(C(=O)CC(c2ccccc2)c2ccccc2)C3)c1 (some centres not stated),"inconclusive [cytotoxic, single point]",
CC(C)CNC(=O)c1coc(=O)c(Br)c1,active: 11.2 µM,
COc1cc(NS(=O)(=O)c2ccc(NC(=O)C34CC5CC(CC(C5)C3)C4)cc2)ncn1,,inactive: -16.4%
CC(C)Oc1cccc(-c2cc(C(=O)NC(=S)N(C)c3ccccc3C(=O)O)c3ccccc3n2)c1,,inactive: -17.3%
C#CC[N+](C)(C)CCCCCCCCCCCC,active: 11.6 µM,
CN1CCN(CCCCOc2ccccc2C=O)CC1,"inconclusive [cytotoxic, partial curve]",
C(=Cc1nc2ccccc2o1)c1ccc2c(c1)OCO2,"inconclusive [cytotoxic, single point]",

SMILES,Potency,"activity, negative = toxicity"
N#Cc1nc(-c2ccc(OCc3ccccc3)cc2)oc1NCCCN1CCOCC1,"inconclusive [cytotoxic, single point]",
Cc1ccc(C)c(NC(=O)COC(=O)c2c(-c3ccccc3)noc2C)c1,,inactive: -0.516%
CC(C)OC(=O)c1ccc(N2CCN(c3ccc(F)cc3)CC2)nc1,"inconclusive [cytotoxic, single point]",
COc1ccc(NS(=O)(=O)c2cccc(C(=O)NCC(c3ccco3)N(C)C)c2)cc1 (configuration not stated),,inactive: 0.658%
O=C(NCc1ccc2c(c1)OCO2)c1ccc(CSCc2cccc(Cl)c2)o1,,inactive: -9.9%
COC(=O)c1[nH]nc2c1C(=O)N(C1CCCCC1)C2=O,"inconclusive [cytotoxic, single point]",
Cn1nc(C(=O)NNC(=O)CCc2ccccc2Cl)c2ccccc2c1=O,,inactive: 5.34%
CCc1c(C)nc2ncnn2c1N1CCCC(C(=O)NCCc2ccc(OC)cc2)C1 (configuration not stated),"inconclusive [cytotoxic, single point]",
Cc1cc(Nc2nc3ccccc3[nH]c2=O)n(-c2ccccc2)n1,"inconclusive [cytotoxic, single point]",
COc1ccc(C(=O)Nc2ccccc2Cc2ccccc2)c(OC)c1,,inactive: -15.3%
CN(c1ccccc1)S(=O)(=O)c1ccc(C(=O)NCc2ccccc2CN2CCCC2)cc1,"inconclusive [cytotoxic, single point]",
O=C(c1cc(F)c(F)cc1Cl)N1CCN(S(=O)(=O)c2cccs2)CC1,,inactive: 6.52%
Cc1c(N=C2NN=C(c3c[nH]c4ccccc34)CS2)c(=O)n(-c2ccccc2)n1C,,inactive: -2.12%
COc1ccc(CNc2nc(NCc3ccc(OC)cc3)c3[nH]cnc3n2)cc1,"inconclusive [cytotoxic, single point]",
O=C(Nc1ccc(S(=O)(=O)N2CCCC2)cc1)c1ccc(CN2CCc3ccccc3C2)cc1,"inconclusive [cytotoxic, full curve]",
O=C(c1ccc(Cn2c(=O)[nH]c3ccccc3c2=O)cc1)N1CCN(c2ccc(Cl)cc2)CC1,"inconclusive [cytotoxic, partial curve]",
Cc1ccc(-c2c[n+](CC(=O)N3c4ccccc4Sc4ccccc43)c3n2CCC3)cc1,"inconclusive [cytotoxic, single point]",
COC(=O)[C@@]12C[C@@H](CC(=O)NCCC(C)C)C(=O)N(Cc3cccc4ccccc34)C1=CCC(C)(C)C2,"inconclusive [cytotoxic, single point]",
COc1ccc(OC)c(NC(=O)CN2c3cccc4cccc(c34)S2(=O)=O)c1,,inactive: -6.42%
CN(C)C(=O)/C(=C\c1ccncc1)NC(=O)c1ccccc1,"inconclusive [rising, partial curve]",
O=C(Nc1nc2ccccc2[nH]1)c1cc(F)cc(F)c1,"inconclusive [cytotoxic, single point]",
COc1ccccc1N1CCN(c2cc(=O)n(Cc3ccc(F)cc3)c(=O)[nH]2)CC1,"inconclusive [cytotoxic, single point]",
COc1ccc(C(C(=O)NC(C)(C)C)N(Cc2ccc(C)cc2)C(=O)CCC(=O)Nc2cc(C)on2)cc1 (configuration not stated),,inactive: -22.1%

SMILES,Potency,"activity, negative = toxicity"
CC(=O)NS(=O)(=O)c1ccc(N=c2ssc3c2-c2cc(C)c(C)cc2NC3(C)C)cc1,"inconclusive [cytotoxic, partial curve]",
Cc1cccc(-n2c(SCC(=O)NCc3ccco3)nc3ccccc3c2=O)c1,"inconclusive [cytotoxic, single point]",
Cn1c(C(=O)N(Cc2ccccc2)Cc2ccccn2)cc2sccc21,"inconclusive [cytotoxic, single point]",
COc1ccc(F)cc1-c1cc(C(=O)NCc2cc(C(F)(F)F)cc(C(F)(F)F)c2)[nH]n1,"inconclusive [cytotoxic, single point]",
Cn1cnc([N+](=O)[O-])c1Oc1cccc2ccccc12,active: 20.6 µM,
Cn1nc(C(C)(C)C)cc1C(=O)N1CCCCC1c1cc(C(=O)NCc2ccc(F)cc2)no1 (configuration not stated),"inconclusive [cytotoxic, single point]",
COc1ccc(S(=O)(=O)N2CCCCC2c2cc(C(=O)Nc3ccc4c(c3)OCO4)no2)cc1 (configuration not stated),"inconclusive [cytotoxic, partial curve]",
CCOC(=O)CSC1=C(C#N)C(c2ccc(Cl)cc2)C(C(=O)OC)C(=O)N1 (configuration not stated),"inconclusive [cytotoxic, single point]",
COc1cccc(-n2c(C)cc(/C=C3/C(=N)N4C(=NC3=O)SN=C4S(C)(=O)=O)c2C)c1,,inconclusive: -19.5% [cytotoxic]
Cc1ccc(C(=O)/C=C/Nc2ccc3c(c2)OCO3)cc1,"inconclusive [cytotoxic, partial curve]",
FC(F)(F)c1ccccc1Cc1c(-c2ccc(Cl)cc2)nc2ccc(Cl)cn12,"inconclusive [cytotoxic, single point]",
O=C(NCCc1csc(-c2ccccc2)n1)c1c(F)cccc1Cl,,inactive: -6.95%
COc1ccc(N2CCN(Cc3nc(N)nc(Nc4ccc(C)c(Cl)c4)n3)CC2)cc1,"inconclusive [cytotoxic, single point]",
Cc1[nH]nc2c1C(c1ccc(-c3ccc(Cl)cc3)o1)C(C#N)=C(N)O2 (configuration not stated),"inconclusive [cytotoxic, single point]",
O=C(NC(c1ccc(-c2ccccc2)cc1)c1cnccn1)C1CCN(Cc2cccc(C(F)(F)F)c2)CC1 (configuration not stated),"inconclusive [cytotoxic, partial curve, poor fit]",
CCC(=O)N1CCC1(C)C(=O)Nc1ccc(Cl)c(Cl)c1 (configuration not stated),,inactive: 12.1%
CS(=O)(=O)N(CC(=O)NCc1ccncc1)Cc1ccc(Cl)cc1,,inactive: 13.2%
CC(C)(C)c1ccc(/C=C/C(=O)c2ccc(NC3=NCCCS3)cc2)cc1,"inconclusive [cytotoxic, single point]",
CC(=O)c1ccc(-c2cnc3c(NC=O)cc(-c4ccccc4Oc4ccccc4)cn23)cc1,"inconclusive [cytotoxic, single point]",
CCOc1ccccc1N/C(=C(/C(Cl)=C(Cl)Cl)[N+](=O)[O-])n1cncn1,,inactive: 5.74%
COc1ccc(Cc2nnc(NC(=O)c3ccc(OC)c(OC)c3)s2)cc1OC,"inconclusive [cytotoxic, single point]",
